Results from the supplement of paper PMC10126150.
Sequences with one replicate were seen in a single cluster, so their values are uncertain.

System: ATP
Assay: switch fluorescence ratio, 500 uM ATP over buffer (Cy3 cluster intensity, sum of 5 cycles each) (fold (ratio)); higher = stronger signal-on switching upon ATP binding; sequences stand for … in TCGTCGGCAGCGTCAGATGTGTATAAGAGACAGTTTTTTTTTTTTTTTTTTTTTTTTT…TC
Conditions: aptamer strand: ATP DNA aptamer (quencher-CACCTGGGGGAGTATTGCGGAGGAAGG + anchor), 100 nM annealed; ATP concentration: 500 uM; one replicate
Procedure, shortened: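 Switching-strand clusters labelled with Cy3 on a modified Illumina MiSeq flow-cell were annealed to 100 nM quencher-labelled ATP aptamer, imaged in selection buffer, and re-imaged after 15 min with 500 uM ATP at 22 °C. This was done over five cycles with NaOH stripping and re-annealing in between. The fluorescence ratio is summed target-cycle over summed buffer-cycle Cy3 intensity per cluster, averaged per switch-domain sequence, excluding clusters outside 100-1000 RFU.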
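Further: ATP exposure 15 min at 22 °C before imaging.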

Row | Sequence | switch fluorescence ratio
1 | GTGTAAACGG | 0.963
2 | TCCACGCATT | 4.77
3 | CAACAAAATT | 1.01
4 | AGGCCCTAAC | 0.989
5 | TAGTGGTATT | 1
6 | GCTTTTGCGT | 0.981
7 | GGGGCATCAT | 0.999
8 | TAATCAATTG | 0.983
9 | GCCTTGGAGG | 0.996
10 | TGGTGCCGAT | 0.99
11 | CAAGATTTGT | 1.03
12 | AGATGTAATA | 1.03
13 | CGTATTGACT | 1.01
14 | TACGTGCCCT | 1.06
15 | AGTGTACAAA | 1.09
16 | TGCCTTAGT | 1.01
17 | CGCTCATCCG | 1.06
18 | TTCGATGCG | 1
19 | AATCCCTTCC | 2.28
20 | ATGTTCAAGT | 0.985
21 | TCCGGTATGG | 1.02
22 | AGTCTGCAAA | 1.72
23 | TCTCCCCTG | 1.38

Row | Sequence | switch fluorescence ratio
24 | ACGGTAGGCG | 1.01
25 | AAGTGGGCGA | 1.03
26 | GTTGTCAGGA | 0.993
27 | TCCCAAGCAT | 2.52
28 | TAGCATTGTT | 0.982
29 | GATGCGGGTT | 1
30 | GGGTTAGTGT | 1.02
31 | TTGAAGGACG | 0.955
32 | TACTTGTGAC | 1.05
33 | TGGGAGTGAG | 0.98
34 | TATAAACAAG | 0.997
35 | GGTTTACTGC | 1.05
36 | GTTGTGGTGC | 1.05
37 | CCTAATCCAT | 0.981
38 | TAGAAGGAG | 1.04
39 | TTGCCTAAAC | 0.982
40 | GATGGCTGCA | 0.994
41 | AAGTGCCGTG | 0.992
42 | ATGGACAGGG | 0.976
43 | TTAGGTTGC | 0.987
44 | CCATCTAGGG | 0.995
45 | TATACGTGGA | 1.02
46 | CGTAGATCAG | 0.977

Row | Sequence | switch fluorescence ratio
47 | TTAGTGCTGT | 0.965
48 | GTGTCCGTCA | 0.996
49 | TTCCAATTGG | 1.02
50 | GTTTCAGACG | 1.11
51 | TTATATACTG | 0.976
52 | GGACGCGGC | 1.02
53 | GAATGTGGTG | 0.968
54 | TCGGCAACCG | 1
55 | GGGCGGCGTC | 0.999
56 | TCCATTGCGC | 1.2
57 | TAGGAAATTC | 0.989
58 | CGTGCCCCAT | 0.976
59 | AACGGGCAAG | 0.993
60 | ATCGCCTGA | 1.02
61 | GCGCTGTAGT | 1.01
62 | TTTACCTCGG | 1.03
63 | GAATTCGGGT | 1.03
64 | CTACCTGCTG | 1
65 | CACTAGCGGT | 1.02
66 | ACTCAGATTA | 1.06
67 | ACGTTGGCCA | 0.995
68 | TCTAGCTTG | 0.99
69 | CATACGGTAT | 1.21

Row | Sequence | switch fluorescence ratio
70 | TTAGTAGAC | 1.05
71 | GTAATTGAAA | 0.988
72 | TTAGAATAGG | 1
73 | TGGGAGTG | 0.984
74 | AATGCTGAAG | 1.03
75 | ACATACTCCT | 1.38
76 | TATATTCTT | 1.06
77 | AAGAATGAGA | 0.979
78 | CCGTGGTCCA | 1.03
79 | ACTTGCTGTG | 0.98
80 | GCAGATGCCA | 0.988
81 | GTTTTAATCG | 1
82 | CATATATGCT | 1.01
83 | GGTTCTTTTG | 0.947
84 | TTCGTCCACT | 1.04
85 | CAGCTTACGG | 1.05
86 | TTTAACCAG | 1.14
87 | TTCCCCGTCT | 0.915
88 | TGTCGCGAA | 1
89 | AATTTGTTT | 1.02
90 | ATCCTCCTA | 1.08
91 | GTTGATACGT | 1.03
92 | TAAATCGAGT | 1.06

Row | Sequence | switch fluorescence ratio
93 | CTGGGATTGT | 0.992
94 | TCATGTATAT | 0.989
95 | TGAAGTGTGG | 1.04
96 | ACCCTGAGC | 1.05
97 | TTAGAAGTGT | 0.9
98 | GGCGATGTAG | 1
99 | TACTAATTA | 1.06
100 | CTCCAACGCT | 2.07
101 | GTAGCGCTCG | 1
102 | CTGCTTACCC | 1.07
103 | TTCAGAAACT | 1.07
104 | GATTCGCGGT | 1.01
105 | GAATGGGGAG | 1.01
106 | TTTTTACGTC | 0.987
107 | ACAAGAGGTA | 1.02
108 | CAGTGCCCGG | 1.03
109 | TTTCGATTAA | 0.984
110 | TCCCTCCGGC | 1.11
111 | TCACGTGAGC | 1.05
112 | ACCATTGTTG | 1
113 | AACTCCTTAG | 1.03
114 | GGGGGACAGT | 0.995
115 | GCGCTATCGG | 1.02

Row | Sequence | switch fluorescence ratio
116 | CGTCACCAGG | 4.15
117 | AAATAGTTGA | 1
118 | CTCATTTTTT | 1.04
119 | GCCGCTAAAA | 5.45
120 | TCTATAAGGC | 1.02
121 | CGCGCGCTTT | 1.06
122 | TACTGACAT | 1.21
123 | TGAACCAAAT | 1.02
124 | GACATAGATT | 0.999
125 | GGCGCTTTTT | 1.01
126 | TGCCTTTAAA | 1.02
127 | GCGCTGCGTT | 1.02
128 | CAAAGCGCCC | 1.14
129 | TGTGATCTTT | 0.997
130 | GTTAATCTTG | 1.02
131 | GATGACCAGT | 1
132 | AGTGATTTAA | 1.02
133 | TATAGCAGGC | 1.3
134 | GGTCCCTGAC | 1.02
135 | TCAGTACACG | 1.04
136 | ATACCCGTGA | 1.04
137 | ACAAATAGGT | 1
138 | TTGCCCCCCA | 0.981

Row | Sequence | switch fluorescence ratio
139 | CGGAATCCGT | 0.95
140 | CTGGGTCAGA | 1
141 | GCAAAACATG | 3.83
142 | CGTAAGTGTG | 1.02
143 | ACAATCGGCA | 0.989
144 | CGGAGTCGA | 1.17
145 | ATAGGTAGTA | 0.988
146 | GGGCATGTTC | 1.02
147 | AGCAGTTAGA | 0.988
148 | AAACCCGAGC | 1.1
149 | TATTACAAAC | 1.15
150 | CCGAGAATTG | 1.08
151 | TTAAACTATT | 1.02
152 | TATTTGCATT | 0.987
153 | ATTGCTGGTC | 0.955
154 | ATCATGCCTT | 1.03
155 | ACTGTACTTA | 1.34
156 | AGGCGGTACG | 1.03
157 | GTGATGGATA | 1.04
